Bounds are passed on as bounds.

Sequence of human CB2 receptor (hCB2) (P34972 whole entry): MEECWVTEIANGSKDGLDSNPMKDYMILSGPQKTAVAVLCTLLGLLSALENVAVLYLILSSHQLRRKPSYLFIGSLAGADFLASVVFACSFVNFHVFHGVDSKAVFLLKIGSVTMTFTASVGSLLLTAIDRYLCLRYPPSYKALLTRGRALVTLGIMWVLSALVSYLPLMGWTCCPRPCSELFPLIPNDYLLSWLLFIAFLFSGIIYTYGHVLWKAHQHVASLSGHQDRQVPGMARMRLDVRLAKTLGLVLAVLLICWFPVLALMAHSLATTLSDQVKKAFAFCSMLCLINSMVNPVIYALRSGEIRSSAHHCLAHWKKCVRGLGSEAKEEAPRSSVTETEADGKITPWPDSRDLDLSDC

The first test addresses human CB2 receptor (hCB2) (Homo sapiens, UniProt P34972). Kind of test: cell-based. In kind it is cell-based.
Conditions: not given
Take `Cc1noc([C@@H](NC(=O)c2nc(-c3ccccc3)n3c2CN(CC(C)C)CC3)C(C)(C)C)n1` [Compound 90, (S)-N-(2,2-dimethyl-1-(3-methyl-1,2,4-oxadiazol-5-yl)propyl)-7-isobutyl-3-phenyl-5,6,7,8-tetrahydroimidazo[1,5-a]pyrazine-1-carboxamide]: the EC50 was above 10000 nM.
The molecule `CNC(=O)[C@@H](NC(=O)c1nc(CCC2CC2)n2c1CN(C)CCC2)C(C)(C)C` [Compound 490, (S)-3-(2-cyclopropylethyl)-N-(3,3-dimethyl-1-(methylamino)-1-oxobutan-2-yl)-8-methyl-6,7,8,9-tetrahydro-5H-imidazo[1,5-a][1,4]diazepine-1-carboxamide] displayed an EC50 above 10000 nM.
Consider `CNC(=O)[C@H](C)NC(=O)c1nc(-c2ccccc2)n2c1CN(Cc1cncnc1)CC2` [Compound 77, (S)-N-(1-(methylamino)-1-oxopropan-2-yl)-3-phenyl-7-(pyrimidin-5-ylmethyl)-5,6,7,8-tetrahydroimidazo[1,5-a]pyrazine-1-carboxamide], for which the EC50 is above 10000 nM.
On the same count and under the same terms, the figure for `CNC(=O)[C@@H](NC(=O)c1nc(-c2cccc(C(F)(F)F)c2F)n2c1CN(C)CCC2)C(C)(C)C` [Compound 364, (S)-N-(3,3-dimethyl-1-(methylamino)-1-oxobutan-2-yl)-3-(2-fluoro-3-(trifluoromethyl)phenyl)-8-methyl-6,7,8,9-tetrahydro-5H-imidazo[1,5-a][1,4]diazepine-1-carboxamide] is above 10000 nM.
Take `CNC(=O)[C@@H](NC(=O)c1nc(-c2cnc(OC)nc2OC)n2c1CN(C)CCC2)C(C)(C)C` [Compound 344, (S)-3-(2,4-dimethoxypyrimidin-5-yl)-N-(3,3-dimethyl-1-(methylamino)-1-oxobutan-2-yl)-8-methyl-6,7,8,9-tetrahydro-5H-imidazo[1,5-a][1,4]diazepine-1-carboxamide]: the EC50 was above 10000 nM.
Same read-out and setting: the figure for `CNC(=O)[C@@H](NC(=O)c1nc(-c2ccccc2)n2c1CN(CC1CC1)CCC2)C(C)(C)C` [Compound 321, (S)-8-(cyclopropylmethyl)-N-(3,3-dimethyl-1-(methylamino)-1-oxobutan-2-yl)-3-phenyl-6,7,8,9-tetrahydro-5H-imidazo[1,5-a][1,4]diazepine-1-carboxamide] is above 10000 nM.
Turning to `CNC(=O)[C@@H](NC(=O)c1nc(-c2ccc(C(N)=O)c(F)c2)n2c1CN(C)CCC2)C(C)(C)C` [Compound 427, (S)-3-(4-carbamoyl-3-fluorophenyl)-N-(3,3-dimethyl-1-(methylamino)-1-oxobutan-2-yl)-8-methyl-6,7,8,9-tetrahydro-5H-imidazo[1,5-a][1,4]diazepine-1-carboxamide], the EC50 is above 10000 nM.

The test is the same for the next values; noted with them: agonist or inverse agonist at hCB2.
Regarding `CNC(=O)[C@@H](NC(=O)c1nc(-c2cc(Cl)c(F)cc2F)n2c1CN(C)CCC2)C1CCCCC1` [Compound 542, (S)-3-(5-chloro-2,4-difluorophenyl)-N-(1-cyclohexyl-2-(methylamino)-2-oxoethyl)-8-mehtyl-6,7,8,9-tetrahydro-5H-imidazo[1,5-a][1,4]diazepine-1-carboxamide], the “+/− HCB2” value is given as “+”.
For the molecule `CN1CCCn2c(-c3cc(Cl)c(F)cc3F)nc(C(=O)N[C@@H](CC(C)(C)C)C(N)=O)c2C1` [Compound 591, (S)-N-(1-amino-4,4-dimethyl-1-oxopentan-2-yl)-3-(5-chloro-2,4-difluorophenyl)-8-methyl-6,7,8,9-tetrahydro-5H-imidazo[1,5-a][1,4]diazepine-1-carboxamide], the “+/− HCB2” value is listed as “+”.
Take `CNC(=O)C(NC(=O)c1nc(-c2ccccc2)n2c1CN(C)CCC2)C(C)(C)F` (stereo not shown) [Compound 605, N-(3-fluoro-3-methyl-1-(methylamino)-1-oxobutan-2-yl)-8-methyl-3-phenyl-6,7,8,9-tetrahydro-5H-imidazo[1,5-a][1,4]diazepine-1-carboxamide]: the “+/− HCB2” value is on record as “+”.
Still for that read-out and setting: the entry for `CN1CCCn2c(-c3ccc(F)cc3F)nc(C(=O)N[C@H](C(=O)N(C)C)C(C)(C)C)c2C1` [Compound 563, (S)-3-(2,4-difluorophenyl)-N-(1-(dimethylamino)-3,3-dimethyl-1-oxobutan-2-yl)-8-methyl-6,7,8,9-tetrahydro-5H-imidazo[1,5-a][1,4]diazepine-1-carboxamide] is “+”; for `CN1CCCn2c(-c3ccccc3)nc(C(=O)Nc3nc(C(C)(C)C)cs3)c2C1` [Compound 596, N-(4-tert-butylthiazol-2-yl)-8-methyl-3-phenyl-6,7,8,9-tetrahydro-5H-imidazo[1,5-a][1,4]diazepine-1-carboxamide] it is “+”; for `CC(C)CN1CCn2c(-c3ccccc3)nc(C(=O)NC3C4(C)CCC(C4)C3(C)C)c2C1` (stereo not shown) [Compound 142, 7-isobutyl-3-phenyl-N-(1,3,3-trimethylbicyclo[2.2.1]heptan-2-yl)-5,6,7,8-tetrahydroimidazo[1,5-a]pyrazine-1-carboxamide] it is “+”.
The same measure, in the same setting: the entry for `COC(=O)N1CCn2c(-c3ccc(Cl)cc3)nc(C(=O)NCCC(C)C)c2C1` [Compound 183, methyl 3-(4-chlorophenyl)-1-(isopentylcarbamoyl)-5,6-dihydroimidazo[1,5-a]pyrazine-7(8H)-carboxylate] is “−”; for `C[C@H](NC(=O)c1nc(-c2ccccc2)n2c1CNCC2)C(C)(C)C` [Compound 27, (s)-N-(3,3-dimethylbutan-2-yl)-3-phenyl-5,6,7,8-tetrahydroimidazo[1,5-a]pyrazine-1-carboxamide] it is “+”; for `CNC(=O)[C@H](CC(C)C)NC(=O)c1nc(-c2cc(Cl)c(F)cc2F)n2c1CN(C)CCC2` [Compound 539, (S)-3-(5-chloro-2,4-difluorophenyl)-8-methyl-N-(4-methyl-1-(methylamino)-1-oxopentan-2-yl)-6,7,8,9-tetrahydro-5H-imidazo[1,5-a][1,4]diazepine-1-carboxamide] it is “+”.
As for `CNC(=O)[C@@H](NC(=O)c1nc(-c2ccc3c(c2)OCO3)n2c1CN(C)CCC2)C(C)(C)C` [Compound 341, (S)-3-(benzo[d][1,3]dioxol-5-yl)-N-(3,3-dimethyl-1-(methylamino)-1-oxobutan-2-yl)-8-methyl-6,7,8,9-tetrahydro-5H-imidazo[1,5-a][1,4]diazepine-1-carboxamide], the “+/− HCB2” value was “+”.
On the same count and under the same terms, for `CNC(=O)[C@@H](NC(=O)c1nc(-c2ccccc2)n2c1CN(C(=O)c1ccccc1)CCC2)C(C)(C)C` [Compound 462, (S)-8-benzoyl-N-(3,3-dimethyl-1-(methylamino)-1-oxobutan-2-yl)-3-phenyl-6,7,8,9-tetrahydro-5H-imidazo[1,5-a][1,4]diazepine-1-carboxamide] the value was “−”; for `CNC(=O)[C@H](CC(C)(C)C)NC(=O)c1nc(-c2ccc(F)c(F)c2)n2c1CN(C)CCC2` [Compound 552, (S)-3-(3,4-diflurophenyl)-N-(4,4-dimethyl-1-(methylamino)-1-oxopentan-2-yl)-8-methyl-6,7,8,9-tetrahydro-5H-imidazo[1,5-a][1,4]diazepine-1-carboxamide], “+”; for `CNC(=O)[C@@H](NC(=O)c1nc(/C=C/CN2CCOCC2)n2c1CN(C)CC2)C(C)(C)C` [Compound 286, (S,E)-N-(3,3-dimethyl-1-(methylamino)-1-oxobutan-2-yl)-7-methyl-3-(3-morpholinoprop-1-enyl)-5,6,7,8-tetrahydroimidazo[1,5-a]pyrazine-1-carboxamide], “+”.
As for `CNC(=O)[C@@H](NC(=O)c1nc(CC(C)C)n2c1CN(C)CC2)C(C)(C)C` [Compound 306, (S)-N-(3,3-dimethyl-1-(methylamino)-1-oxobutan-2-yl)-3-isobutyl-7-methyl-5,6,7,8-tetrahydroimidazo[1,5-a]pyrazine-1-carboxamide], the “+/− HCB2” value is “+”.
Turning to `CN1CCn2c(-c3ccccc3)nc(C(=O)N[C@H](c3nc(C(C)(C)C)no3)C(C)(C)C)c2C1` [Compound 283, (S)-N-(1-(3-tert-butyl-1,2,4-oxadiazol-5-yl)-2,2-dimethylpropyl)-7-methyl-3-phenyl-5,6,7,8-tetrahydroimidazo[1,5-a]pyrazine-1-carboxamide], the “+/− HCB2” value was “+”.
The same measure, in the same setting: the entry for `CNC(=O)[C@H](CC(C)C)NC(=O)c1nc(-c2cc(F)ccc2F)n2c1CN(C)CCC2` [Compound 532, (S)-3-(2,5-difluorophenyl)-8-methyl-N-(4-methyl-1-(methylamino)-1-oxopentan-2-yl)-6,7,8,9-tetrahydro-5H-imidazo[1,5-a][1,4]diazepine-1-carboxamide] is “+”; for `CNC(=O)[C@@H](NC(=O)c1nc(-c2cccc(F)c2)n2c1CNCC2)C(C)(C)C` [Compound 4, (S)-N-(3,3-dimethyl-1-(methylamino)-1-oxobutan-2-yl)-3-(3-fluorophenyl)-5,6,7,8-tetrahydroimidazo[1,5-a]pyrazine-1-carboxamide] it is “+”.

The test is the same for the next values; noted with them: groups >100 nM-10 μM and >10 μM; cAMP, CHO-K1 hCB2; read-out: EC50 HCB2.
On to `CCS(=O)(=O)N1CCn2c(-c3ccccc3)nc(C(=O)NN3CCCCC3)c2C1` [Compound 115, 7-(ethylsulfonyl)-3-phenyl-N-(piperidin-1-yl)-5,6,7,8-tetrahydroimidazo[1,5-a]pyrazine-1-carboxamide], for which the EC50 was above 10000 nM.
Same read-out and setting: the figure for `CN1CCn2c(-c3ccccc3)nc(C(=O)N3CCOCC3)c2C1` [Compound 69, (7-methyl-3-phenyl-5,6,7,8-tetrahydroimidazo[1,5-a]pyrazin-1-yl)(morpholino)methanone] is above 10000 nM; for `CN1CCn2c(-c3ccc(Cl)cc3F)nc(C(=O)NCc3ccc4[nH]c(=O)[nH]c4c3)c2C1` [Compound 228, 3-(4-chloro-2-fluorophenyl)-7-methyl-N-((2-oxo-2,3-dihydro-1H-benzo[d]imidazol-5-yl)methyl)-5,6,7,8-tetrahydroimidazo[1,5-a]pyrazine-1-carboxamide] it is above 10000 nM; for `COC(=O)N1CCn2c(-c3ccccc3)nc(C(=O)Nc3ccccc3)c2C1` [Compound 181, methyl 3-phenyl-1-(phenylcarbamoyl)-5,6-dihydroimidazo[1,5-a]pyrazine-7(8H)-carboxylate] it is above 10000 nM.

(Values after US7517874B2 (priority 2007, dated 2009).)
